Legend:
CB1-nanodisc = experiment: Octet affinity assay with CB1-nanodisc; assay type: binding, human; details: 1:1 Langmuir model
XCR1-SMALP = biological target: T1, XCR1-SMALP (Homo sapiens, UniProt P46094); experiment: Yeast-display non-specific binding to irrelevant XCR1-SMALP; details: fold change compared to LIBC523797-1(Fab), after background subtraction
T1 sequence (P46094 1-333): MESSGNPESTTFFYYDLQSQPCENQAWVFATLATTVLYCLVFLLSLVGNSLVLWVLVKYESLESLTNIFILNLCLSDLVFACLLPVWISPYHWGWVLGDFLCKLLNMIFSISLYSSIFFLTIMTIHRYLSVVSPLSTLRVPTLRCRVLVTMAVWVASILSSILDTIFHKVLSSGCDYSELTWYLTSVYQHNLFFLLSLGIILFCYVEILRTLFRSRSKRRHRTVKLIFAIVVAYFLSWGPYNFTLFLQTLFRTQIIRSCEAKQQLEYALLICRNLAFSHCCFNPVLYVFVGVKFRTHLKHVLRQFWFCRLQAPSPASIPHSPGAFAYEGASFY
Description: All eighteen cognate variants met the stringent binding improvement threshold against huCB1I-GFP-SMALP and had minimal binding to irrelevant XCR1-SMALP and empty-ND (Table 32). […] For LIBC674043-1 and LIBC674200-1, VH R149S and VL G76D germline reversion mutations were also included in the panel of IgG1 SEFL2 mAbs produced for functional testing.

Row | Molecule | Octet (nanodisc) k off (CB1-nanodisc) [s⁻¹] | Octet (nanodisc) k on (CB1-nanodisc) [M⁻¹ s⁻¹] | 50 nM XCR1 SMALP, relative binding fold change (XCR1-SMALP)
1 | LIBC524049-1: cognate affinity-matured 10D10 variant; HV SEQ ID NO: 116, LV SEQ ID NO: 115 (antibody, V domains shown) VH: QVQLQESGPGLVKPSQTLSLTCTVSGGSIRRGGDYWSWIRQHPGKGLEWIGHIYYTGSTAYNPSLKSRATISVNTYKNQFSLKLSSVTAADTAVYYCARDYDILTGYSYYYYGMDVWGQGTTVTVSS VL: [sequence of about 100 residues omitted]YCRQARTLPRTFGQGTKVEIKR | 0.000904 | 59000 | 
2 | LIBC673948-1: further cognate affinity-matured variant (antibody, V domains shown) VH: QVQLQESGPGLVKPSQTLSLTCTVSGGSIRRGGDYWSWIRQHPGKGLEWIGHIYYTGSTKYNPSLKNRVRISVNTYKNQFSLKLSSVTAADTAVYYCARGYDVSGYSYYYYGLDVWGQGTTVTVSS VL: [sequence of about 100 residues omitted]YCMQSLQTPRTFGQGTKVEIKR |  |  | 0.88
3 | LIBC673965-1: further cognate affinity-matured variant (antibody, V domains shown) VH: QVQLQESGPGLVKPSQTLSLTCTVSGGSIRRGGDYWSWIRQHPGKGLEWIGHVYYTGQTAYNPSLRGRVRISVNTYKNQFSLKLSSVTAADTAVYYCARGYDTSGYSYYYYGLDVWGQGTTVTVSS VL: [sequence of about 100 residues omitted]YCMQSLQTPRTFGQGTKVEIKR |  |  | 0.74
4 | LIBC673982-1: further cognate affinity-matured variant (antibody, V domains shown) VH: QVQLQESGPGLVKPSQTLSLTCTVSGGSIRRGGDYWSWIRQHPGKGLEWIGHIYYTGSTTYNPSFRGRVRISVNTYKNQFSLKLSSVTAADTAVYYCARDYDISGYSYYYYGMDVWGQGTTVTVSS VL: [sequence of about 100 residues omitted]YCRQSVALPRTFGQGTKVEIKR |  |  | 0.79
5 | LIBC673972-1: further cognate affinity-matured variant (antibody, V domains shown) VH: QVQLQESGPGLVKPSQTLSLTCTVSGGSIRRGGDYWSWIRQHPGKGLEWIGHIYYTGQTAYNPNLRNRVRISVNTYKNQFSLKLSSVTAADTAVYYCARGYDASGYSYYYYGLDVWGQGTTVTVSS VL: [sequence of about 100 residues omitted]YCMQSLQTPRTFGQGTKVEIKR |  |  | 0.80
6 | LIBC674024-1: further cognate affinity-matured variant (antibody, V domains shown) VH: QVQLQESGPGLVKPSQTLSLTCTVSGGSIRRGGDYWSWIRQHPGKGLEWIGHVYQTGSTKYNPSFKNRVRISVNTYKNQFSLKLSSVTAADTAVYYCARGYDVSGYSYYYYGLDVWGQGTTVTVSS VL: [sequence of about 100 residues omitted]YCMQSLQTPRTFGQGTKVEIKR |  |  | 0.86
7 | LIBC674035-1: further cognate affinity-matured variant (antibody, V domains shown) VH: QVQLQESGPGLVKPSQTLSLTCTVSGGSIRRGGDYWSWIRQHPGKGLEWIGHIYYAGQTKYNPSFKNRVRISVNTYKNQFSLKLSSVTAADTAVYYCARGYDISGYSYYYYGLDVWGQGTTVTVSS VL: [sequence of about 100 residues omitted]YCMQSLQTPRTFGQGTKVEIKR |  |  | 0.91
8 | LIBC674043-1: further cognate affinity-matured variant (antibody, V domains shown) VH: QVQLQESGPGLVKPSQTLSLTCTVSGGSIRRGGDYWSWIRQHPGKGLEWIGHIYYTGQTTYNPNFKGRVRISVNTYKNQFSLKLSSVTAADTAVYYCARGYDASGYSYYYYGMDVWGQGTTVTVSR VL: [sequence of about 100 residues omitted]YCMQSLQTPRTFGQGTKVEIKR |  |  | 0.62
9 | LIBC674002-1: further cognate affinity-matured variant (antibody, V domains shown) VH: QVQLQESGPGLVKPSQTLSLTCTVSGGSIRRGGDYWSWIRQHPGKGLEWIGHIYYKGSTEYNPSLRGRVRISVNTYKNQFSLKLSSVTAADTAVYYCARGYDVSGYSYYYYGLDVWGQGTTVTVSS VL: [sequence of about 100 residues omitted]YCMQSLQTPRTFGQGTKVEIKR |  |  | 0.91
10 | LIBC674153-1: further cognate affinity-matured variant (antibody, V domains shown) VH: QVQLQESGPGLVKPSQTLSLTCTVSGGSIRRGGDYWSWIRQHPGKGLEWIGHVYYTGSTAYNPSFRGRVRISVNTYKNQFSLKLSSVTAADTAVYYCARGYDTSGYSYYYYGLDVWGQGTTVTVSS VL: [sequence of about 100 residues omitted]YCMQSLQTPRTFGQGTKVEIKR |  |  | 0.68
11 | LIBC674214-1: further cognate affinity-matured variant (antibody, V domains shown) VH: QVQLQESGPGLVKPSQTLSLTCTVSGGSIRRGGDYWSWIRQHPGKGLEWIGHVYYEGSTKYNPSFRGRVRISVNTYKNQFSLKLSSVTAADTAVYYCARGYDVSGYSYYYYGLDVWGQGTTVTVSS VL: [sequence of about 100 residues omitted]YCMQSLQTPRTFGQGTKVEIKR |  |  | 0.68
12 | LIBC674216-1: further cognate affinity-matured variant (antibody, V domains shown) VH: QVQLQESGPGLVKPSQTLSLTCTVSGGSIRRGGDYWSWIRQHPGKGLEWIGHIYYTGQTAYNPSLRNRVRISVNTYKNQFSLKLSSVTAADTAVYYCARGYDISGYSYYYYGLDVWGQGTTVTVSS VL: [sequence of about 100 residues omitted]YCMQSLQTPRTFGQGTKVEIKR |  |  | 0.52
13 | LIBC674235-1: further cognate affinity-matured variant (antibody, V domains shown) VH: QVQLQESGPGLVKPSQTLSLTCTVSGGSIRRGGDYWSWIRQHPGKGLEWIGHVYYAGSTTYNPSLKSRVRISVNTYKNQFSLKLSSVTAADTAVYYCARGYDVSGYSYYYYGLDVWGQGTTVTVSS VL: [sequence of about 100 residues omitted]YCMQSLQTPRTFGQGTKVEIKR |  |  | 0.68
14 | LIBC674257-1: further cognate affinity-matured variant (antibody, V domains shown) VH: QVQLQESGPGLVKPSQTLSLTCTVSGGSIRRGGDYWSWIRQHPGKGLEWIGHIYYTGQTKYNPSLRGRVRISVNTYKNQFSLKLSSVTAADTAVYYCARGYDISGYSYYYYGLDVWGQGTTVTVSS VL: [sequence of about 100 residues omitted]YCMQSLQTPRTFGQGTKVEIKR |  |  | 0.77
15 | LIBC674276-1: further cognate affinity-matured variant (antibody, V domains shown) VH: QVQLQESGPGLVKPSQTLSLTCTVSGGSIRRGGDYWSWIRQHPGKGLEWIGHVYYTGSTTYNPNFKGRVRISVNTYKNQFSLKLSSVTAADTAVYYCARGYDASGYSYYYYGLDVWGQGTTVTVSS VL: [sequence of about 100 residues omitted]YCMQSLQTPRTFGQGTKVEIKR |  |  | 0.54
16 | LIBC529593-1 (Fab) (antibody, V domains shown) VH: QVQLQESGPGLVKPSQTLSLTCTVSGGSIRRGGDYWSWIRQHPGKGLEWIGHIYYSGSTNYNPSLRSRVRISVDTSKNQFSLKLSSVTAADTAVYYCARDYDILTGYSYYYYGLDVWGQGTTVTVSS VL: [sequence of about 100 residues omitted]YCMQSLQTPRTFGQGTKVEIKR |  |  | 1.50
